Data as given in PubChem BioAssay AID1159614 (National Center for Advancing Translational Sciences (NCATS), 2016).
Out of some 45,000 compounds screened, about 65 (0.1%) were called active. The call rests on the fitted dose curve; in most records, active means well fitted activation curve with a large enough effect; inconclusive means small, poorly fitted or top-dose-only effect; inactive means no such curve, though single readings can be large or run the other way. The list shows a part of the results.

target: Galactocerebrosidase (Homo sapiens) (UniProt P54803); assay: A Novel Cell-Based Assay to Identify Small Molecules for B -Galactocerebrosidase; conditions: 145M-Twi-hGALC-G270D cells (Twitcher mouse brain line with human GALC G270D), HMU-beta-Gal fluorescence, 48 h; series mostly up to 57.5 µM; activation: at the top concentration; further: 0% is about no effect; nearly all actives have a fitted effect of over 65% in size
From the text: Lysosomal storage diseases (LSDs) are caused by genetic mutations in genes encoding proteins important for normal lysosomal function. Globoid cell leukodystrophy (GLD), mostly known as Krabbe disease, is a prototype of the neurological LSDs caused by deficiency of beta-galactocerebrosidase (GALC). In brain specimens of GLD patients, psychosine levels are substantially elevated. At elevated concentrations, psychosine becomes cytotoxic to neuronal cells, particularly to oligodendrocytes (OLG), neural cells responsible for myelin formation. Therefore, the biochemical disturbances in GLD are manifested by different degrees of brain demyelination resulting in a broad spectrum of neurological manifestations. Most of the FDA-approved therapies are based on enzyme replacement therapeutic (ERT) agents, which treat non-neurological symptoms of Gaucher disease, Fabry disease, few mucopolysaccharidoses and Pompe disease. Unfortunately, in GLD, a primarily neurological LSD, ERT agents, as large molecular weight molecules unable to cross the blood-brain barrier, which makes this an inefficacious therapeutic approach. In GLD, increasing the residual GALC activity just above the critical threshold (~10% of wild type enzymatic activity), the cytotoxic levels of psychosine will be reduced, avoiding the OLGs apoptosis and the subsequent demyelination process. This will translate in disease stabilization and amelioration of GLD patient symptoms.
A cell-based assay in 1,536-well plate format was developed to implement a quantitative high-throughput screening (qHTS) assay using GLD-disease relevant cells to identify small molecules that produce enhancements of the residual enzymatic activity levels of mutants GALC found and prevalent in GLD patients. Compounds that are active may therefore have some therapeutic application for GLD. After the treatment of live cells for a determined period, using a fluorescent GALC specific substrate, the mutant residual GALC activity is measured. This cell-based qTHS assay was used to screen part of the MLPCN library for small molecule able to increase the mutant GALC enzymatic activity. In this assay, increased fluorescent signal corresponds to enhanced levels of mutant GALC residual enzymatic activity. Activation is the desired outcome for this assay.
NIH Chemical Genomics Center [NCGC]
NIH Molecular Libraries Probe Centers Network [MLPCN]
Assay Submitter (PI): Gustavo Maegawa MD,PhD, University of Florida, Gainesville, FL
2)#Two cell lines were established for the assay: 145M-Twi-hGALC-G270D (brain-derived Twitcher cell line stably expressing human GALC-G270D) and 145M-Twi-hGALC-WT (same 145M-Twi stably expressing human GALC wild type). The Twitcher is the murine C57B/6 model for GLD with naturally occurring homozygous nonsense GALC mutation. The 145M-Twi cell line was established at Maegawa lab (Ribbens J et al 2014).
a.#Media: DMEM/F12 (1:1) with 10% fetal bovine-serum (FBS) with penicillin/streptomycin (PS-1X - 100 I.U./mL of penicillin+100 ug/mL of streptomycin).
b.#The 6-Hexadecanoylamino-4-methylumbelliferyl-b-D-galactoside (HMU-B-gal) substrate was prepared as per Wiederschain et al 1992. Using 20-mL borosilicate tubes, 2.20 mg of HMU-b-Gal was added in each tube to prepare substrate-film with a final air-nitrogen stream evaporation to remove all diluent solvents.
c.#The HMUb-Gal substrate buffer consists of 0.2 M Na2HPO4 (sodium phosphate dibasic)/ 0.1 M Citric Acid with the pH adjusted to 5.2 using HCl. Sodium Azide at 0.02% and Sodium Taurocholate (NaTC) at 1 mg/mL were added to this substrate buffer.
d.#The HMU-b-Gal stopping buffer consist of 0.5 M NaHCO3 (sodium bicarbonate) /0.5 M Na2CO3 (sodium carbonate). […] Triton X-100 at 0.25% was added.
4)#Preparation of HMU-b-Gal substrate tubes
Adding 18.6 mL of the HMUb-Gal substrate buffer to each 20-mL tube (2.20 mg of HMU-b-Gal) will reach a concentration of 0.2 mM. Vortex well the tube until the solution is fully homogenized (clear cloudy solution). […]

Chain of UniProt P54803 (P54803 whole entry, looked up): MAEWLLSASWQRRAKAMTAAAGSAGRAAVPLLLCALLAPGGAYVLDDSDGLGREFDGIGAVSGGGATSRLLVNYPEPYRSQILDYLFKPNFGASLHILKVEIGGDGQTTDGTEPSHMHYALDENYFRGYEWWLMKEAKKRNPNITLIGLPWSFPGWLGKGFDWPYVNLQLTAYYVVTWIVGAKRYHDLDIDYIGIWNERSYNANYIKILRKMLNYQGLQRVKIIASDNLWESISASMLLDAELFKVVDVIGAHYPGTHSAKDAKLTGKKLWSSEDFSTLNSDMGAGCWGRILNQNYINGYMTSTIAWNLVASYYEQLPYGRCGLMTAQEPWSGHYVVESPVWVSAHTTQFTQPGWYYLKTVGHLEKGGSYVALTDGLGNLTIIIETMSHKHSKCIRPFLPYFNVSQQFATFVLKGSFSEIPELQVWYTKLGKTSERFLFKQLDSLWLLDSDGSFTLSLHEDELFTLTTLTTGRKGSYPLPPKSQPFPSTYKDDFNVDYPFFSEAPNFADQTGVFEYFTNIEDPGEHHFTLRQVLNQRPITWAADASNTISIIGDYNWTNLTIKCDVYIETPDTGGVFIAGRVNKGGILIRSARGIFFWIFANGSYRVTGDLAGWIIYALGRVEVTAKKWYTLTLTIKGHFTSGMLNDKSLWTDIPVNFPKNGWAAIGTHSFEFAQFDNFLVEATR

activation, inactive:
COc1cccc2c1Oc1ncccc1N(C(=O)CCC(=O)NCc1ccc(OC(C)C)cc1)C2 -16.2%
CCOC(=O)C1=C(CN2CCN(c3ccc(Cl)cc3)CC2)NC(=O)NC1c1ccc(F)cc1 (configuration not stated) -7.91%
O=C(CSc1nc2c([nH]c3ccccc32)c(=O)n1-c1ccccc1)Nc1ccccc1C(F)(F)F -1.41%
NC(=O)COc1ccc(-c2noc(COc3ccc(Cl)cc3)n2)cc1 -4.83%
COc1ccc(OC)c(NC(=O)CCCOc2cc(=O)n(C)c3ccccc23)c1 -5.61%
COc1cccc(NC(=O)CSC2=Nc3ccccc3C3=NC(CCC(=O)NC4CCCCC4)C(=O)N23)c1 (configuration not stated) -20.5%
COc1cc(CNCCCSc2nnnn2C)cc(Br)c1OC -24%
Cc1[nH]c2ccccc2c1C1(O)C(=O)Nc2ccc(Cl)cc21 (configuration not stated) -12.3%
COc1cccc(C(=O)NCC(c2ccc3c(c2)OCO3)N2CCN(C)CC2)c1 (configuration not stated) -18.5%
CCc1ccccc1-n1nnc(-c2nc(-c3ccccc3F)no2)c1C -36.4%
Cc1ccc(-n2c3c(c(=O)[nH]c2=O)C(NC(=O)C(C)(C)C)(C(F)(F)F)C(=O)N3)cc1 (configuration not stated) -5.74%
O=C(Nc1cccc(F)c1)C1CCN(c2nc3ccccc3nc2C(F)(F)F)CC1 -17%
O=C(CCSCc1cccc(F)c1)NCCc1ccccc1 2.96%
Cc1ccc(N2CC(C(=O)NCCS(=O)(=O)N3CCN(c4ccc(F)cc4)CC3)CC2=O)cc1 (configuration not stated) -17.7%
CCc1ccccc1NC(=O)Cn1cc(C(=O)c2ccncc2)c(=O)c2cc(C)ccc21 -18.4%
O=C(CCSCCc1ccccn1)Nc1ccccc1C(F)(F)F -4.23%
O=C(COCc1cc(-c2ccc(F)cc2)on1)Nc1cc(Cl)cc(Cl)c1 -16.3%
Cc1ccc(-n2ncc3c(NCCc4ccccc4)ncnc32)cc1Cl -12.9%
COc1ccc(CCNC(=O)c2cc(-c3ccc(C)cc3)nc3n[nH]c(-c4ccc(F)cc4)c23)cc1OC -11.5%
COc1cccc(Cn2c(=O)n(-c3cc(C)cc(C)c3)c(=O)c3oc4ccccc4c32)c1 10.2%
Cc1c(Cl)cccc1-c1ccc(C(=O)Nc2ccc3oc(-c4cccnc4)nc3c2)o1 -27.9%
CCC(CC)C(=O)Nc1cccc(-c2cn3cccnc3n2)c1 2.24%
Cc1ccc2c(=O)c(C(=O)c3cccc(Cl)c3)cn(CC(=O)NCc3ccccc3)c2n1 -15.1%
COc1cc(OC)c(NC(=O)Cn2c(=O)nc(-c3ccccc3)c3ccccc32)cc1Cl -2.73%
COCCCNc1oc(-c2ccc(COc3ccccc3C)o2)nc1C#N -12%
CC1=C(C(=O)Nc2cccc(F)c2)C2(CCCCCC2)OC1=O -0.28%
Cc1ccc(N2CCN(S(=O)(=O)c3nnc(NC(=O)c4cccc(F)c4)s3)CC2)cc1 -10%
CCc1ccc(C2=CC(c3cccc(OC)c3OC)n3c(nc4ccccc43)N2)cc1 (configuration not stated) -23.4%
CCOc1cc(CNC(=O)c2cc(-c3ccc(Cl)s3)nc3ccccc23)ccc1OC -1.91%
COc1ccc(CCNC(=O)Cn2c(=O)cc(C(F)(F)F)c3c(C)nn(C)c32)c(OC)c1 -12.4%
CCCN1CCN(CCCNC(=O)c2cc3c(=O)[nH]c4ccccc4c3s2)CC1 -0.803%
COc1ccc(NC(=O)CNC(=O)Cn2ccc3ccccc3c2=O)c(OC)c1 -7.94%
O=C(Cn1cccc1C(=O)c1ccccc1)NCc1ccc(Cl)cc1 1.11%
Cc1cc(C)c2c(NC(=O)c3ccccc3Cl)c(C(=O)Nc3ccc(C)c(C)c3)sc2n1 -5.71%
CCc1ccccc1NC(=O)c1nnn(CC(=O)Nc2c(C)cc(C)cc2C)c1N -12.6%
CN(C(=O)CSc1nc2ccc(NC(=O)c3ccco3)cc2s1)c1ccccc1 -32.3%
Cc1ccc(CNC(=O)c2cnc(N3CCCC3)nc2C)cc1 -9.44%
CCC1=Nc2cc(C(=O)NC3CCCC3)ccc2Sc2ccc(Cl)cc21 -13.3%
COc1cc(CNCCSc2nnnn2C)ccc1OCc1ccccc1 -13.3%
COc1ccc(N2CCN(C(=O)c3c(C)oc4ncn(CC(C)C)c(=O)c34)CC2)cc1 -9%
COC(=O)c1ccc(NC(=O)C(C)N2Cc3ccccc3C2=O)cc1 (configuration not stated) -10.5%
CCOC(=O)c1cc(S(=O)(=O)N2CCN(c3cccc(C)c3)C(C)C2)[nH]n1 (configuration not stated) -10.8%
Cc1ccc2nc3sc(C(=O)Nc4ccc(F)cc4)cc3cc2c1 -8.09%
COCCn1c(C)cc(O)c(C(c2ccc(OC)cc2)N2CCCCC2)c1=O (configuration not stated) -4.73%
CC1CN(C(=O)Nc2ccc(C(=O)NCCc3ccc(Cl)cc3)cc2)c2ccccc2S1 (configuration not stated) -2.22%
CCOc1ccc(NCc2cccn2-c2nnc(N3CCC(C(=O)NCCc4ccc(OCC)c(OCC)c4)CC3)s2)cc1 -0.666%
CCCN1Cc2cccc(C(=O)Nc3ccccc3F)c2C1=O -12%
CCCC(=O)Nc1ccc2nc(SCCOc3ccccc3)sc2c1 -14.9%
Cn1c(C(=O)NCCc2ccccc2)cc2cc(S(=O)(=O)N3CCCCC3)ccc21 -10.5%
Cc1cccc(NC(=O)C(=O)NCC(c2cccnc2)N2CCN(Cc3ccccc3)CC2)c1 (configuration not stated) -20.7%
Cc1ccccc1NC(=O)CSCn1nnc2c(=O)[nH]c(Cc3ccc(F)cc3)nc21 -8.16%
CC(=O)Oc1cccc2c1C(=O)c1c(OC(C)=O)cc(C(=O)O)cc1C2=O -9.3%
COc1ccccc1C(=O)Nc1nnc(S(=O)(=O)N2CCCCC2)s1 -11.7%
CCOC(=O)c1c(Nc2ccc(OCC)cc2)nnc(-c2ccccc2)c1-c1ccccc1 -33.7%
CC(C)(C)OC(=O)N1CCC(c2c(C(=O)NCCc3ccsc3)cnn2-c2ccc(F)cc2F)CC1 5.35%
COc1ccc(Cl)cc1NC(=O)c1c(NCc2cccnc2)sc2c1CCCC2 -7.94%
Cc1ccccc1NC(=O)Cn1c(=O)n(Cc2ccco2)c(=O)c2ccc(C(=O)NC3CCCC3)cc21 -16.5%
Cc1cc(-c2ccccc2)nc2cc(C(=O)Nc3ccc(Cl)c(Cl)c3)nn12 -14.3%
COc1ccc2ncc3c(-c4ccccc4)nn(-c4ccc(C)c(C)c4)c3c2c1 7.35%
COc1ccccc1NC(=O)CSc1ncc(CO)n1Cc1ccc(F)cc1 -1.35%
CC(C)c1cnc2c(c1SCC(=O)c1ccc(Cl)cc1)c(=O)n(C)c(=O)n2C 4.67%
COc1cc(OC)c(NC(=O)c2nn(C)c3c2COc2ccccc2-3)cc1Cl -7.1%
Cc1ccccc1NC(=O)Cn1nnc(C(=O)NCc2ccco2)c1N -5.34%
C#CCOc1c(Br)cc(C2C(C(=O)OC)=C(C)NC3=C2C(=O)c2ccccc23)cc1OCC (configuration not stated) -14%
CCOC(=O)c1cnc2cc(Cl)c(OC)cc2c1Nc1ccc(Br)cc1C -9.02%
COc1ccccc1N1CCN(C(=O)C2CCN(S(=O)(=O)c3cccs3)CC2)CC1 4.16%
COc1ccccc1C(=O)NC1(C(F)(F)F)C(=O)NC(C)=C1C#N (configuration not stated) 2.12%
O=C(CSc1c2c(nc3ccc(Cl)cc13)CCCC2)N1CCN(c2ccc(Cl)cc2)CC1 -15.1%
CCOc1ccc(OC(=O)c2sc3ncn(Cc4cccc(F)c4)c(=O)c3c2C)cc1 -6.96%
CSc1ccc(CCNS(=O)(=O)c2cc(-c3cc(C)no3)ccc2C)cc1 -14%
Cc1cccc(C(=O)Nc2nnc(S(=O)(=O)N3CCOCC3)s2)c1 -24.6%
COc1ccc(Cn2nc3n(c2=O)-c2ccccc2OC3)cc1 -7.84%
Cc1ccc(C)c(Cn2c(=O)n(CCc3ccccc3)c(=O)c3c(C)c(C)sc32)c1 -1.25%
O=C(Nc1ccccc1)c1cc2c(-c3ccccc3)nn(-c3ccccc3)c2s1 1.9%
Cc1ccc(-c2nnc(Nc3cccc(Br)c3)c3ccccc23)cc1S(=O)(=O)N1CCN(C)CC1 -18%
COc1ccc(OC)c(NC(=O)C(Cc2ccccc2)NS(=O)(=O)c2ccc3c(c2)CCC(=O)N3)c1 (configuration not stated) -17.4%
Cc1ncc(CSSCc2cnc(C)c(O)c2CO)c(CO)c1O -17.8%
CCC(=O)N1c2ccccc2CC1C(=O)NCCCN1CCN(c2ccc(F)cc2)CC1 (configuration not stated) -16.6%
COc1ccc(NC(=O)C(=O)Nc2ccc3nc4n(c(=O)c3c2)CCCCC4)c(OC)c1 -2.79%
COc1ccc(Cl)cc1S(=O)(=O)Nc1ccc2c(c1)n(C)c(=O)n2C -15.1%
Cc1cccc(C(=O)n2nc(-c3ccco3)nc2NCc2ccccc2)c1 -13.9%
O=C(Nc1ccc(Br)cc1)Nc1nc2c(s1)CCCCCC2 -17.3%
CCN(CC)S(=O)(=O)c1ccc2c(c1)N(CC(=O)Nc1cccc(C(C)=O)c1)C(=O)CO2 -13.2%
O=C(COCc1cc(-c2ccc3c(c2)OCO3)on1)Nc1cccc(O)c1 -10.8%
Cc1nnc(SCC(=O)NCc2cccc(F)c2)c2nn(-c3ccccc3)c(C)c12 -17.7%
COc1ccc2c(c1)c(CC(=O)OC/C=C(\C)CC/C=C(\C)CCC=C(C)C)c(C)n2C(=O)c1ccc(Cl)cc1 -12.2%
O=C(NCCn1cc(SCc2ccc(C(F)(F)F)cc2)c2ccccc21)c1cccs1 -11%
COc1ccc(-n2nc3c(N4CCCC(C(=O)NCc5ccccc5C)C4)nnc(C)c3c2C)cc1 (configuration not stated) -39.9%
Cc1ccc(-n2ncc(C(=O)NCCN3CCc4ccccc4C3)c2C2CCN(C(=O)OC(C)(C)C)CC2)c(C)c1 -16%
O=C(CN1C(=O)COc2ccc(S(=O)(=O)NC3CCCC3)cc21)Nc1ccc(F)c(Cl)c1 -7.74%
CNC(=O)C1CCC(Cn2c(=O)c3sccc3n(CC(=O)Nc3ccc(C)cc3C)c2=O)CC1 (configuration not stated) -3.67%
Cc1cccc(NC(=O)CSc2nc(=O)n(CCN3CCOCC3)c3c2CCC3)c1 -20.9%
Cc1ccc(NC(=O)Nc2csc3c2CCCC3)c(C)c1 -12.5%
COc1cccc(NC(=O)CN2C(=O)COc3ccc(S(=O)(=O)N4CCOCC4)cc32)c1 -9.26%
COc1ccccc1CNc1ncnc2onc(-c3ccc(Cl)cc3)c12 -8.94%
CN(c1nnc(NC(=O)Nc2ccc(Br)cc2)s1)C1CCCCC1 -17.5%
Cc1[nH]c2ccccc2c1C1(O)C(=O)N(Cc2ccccc2)c2ccc(Br)cc21 (configuration not stated) -1.4%
